Assay results published in publication PMC4336329 (PLoS ONE, 2015).
Out of some 310,000 compounds screened, about 14,000 (4.5%) showed an effect of 50% or more. The effect is printed as a negative number. The list shows a part of the results.

Target: human ether-à-go-go-related gene (hERG) potassium channel (human, UniProt Q12809)
Assay: primary screen, population patch clamp on CHO cells stably expressing hERG
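Further: peak tail current of the secondary pulse compared with the same well before compound.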

Sequence of human ether-à-go-go-related gene (hERG) potassium channel (Q12809 whole entry, looked up): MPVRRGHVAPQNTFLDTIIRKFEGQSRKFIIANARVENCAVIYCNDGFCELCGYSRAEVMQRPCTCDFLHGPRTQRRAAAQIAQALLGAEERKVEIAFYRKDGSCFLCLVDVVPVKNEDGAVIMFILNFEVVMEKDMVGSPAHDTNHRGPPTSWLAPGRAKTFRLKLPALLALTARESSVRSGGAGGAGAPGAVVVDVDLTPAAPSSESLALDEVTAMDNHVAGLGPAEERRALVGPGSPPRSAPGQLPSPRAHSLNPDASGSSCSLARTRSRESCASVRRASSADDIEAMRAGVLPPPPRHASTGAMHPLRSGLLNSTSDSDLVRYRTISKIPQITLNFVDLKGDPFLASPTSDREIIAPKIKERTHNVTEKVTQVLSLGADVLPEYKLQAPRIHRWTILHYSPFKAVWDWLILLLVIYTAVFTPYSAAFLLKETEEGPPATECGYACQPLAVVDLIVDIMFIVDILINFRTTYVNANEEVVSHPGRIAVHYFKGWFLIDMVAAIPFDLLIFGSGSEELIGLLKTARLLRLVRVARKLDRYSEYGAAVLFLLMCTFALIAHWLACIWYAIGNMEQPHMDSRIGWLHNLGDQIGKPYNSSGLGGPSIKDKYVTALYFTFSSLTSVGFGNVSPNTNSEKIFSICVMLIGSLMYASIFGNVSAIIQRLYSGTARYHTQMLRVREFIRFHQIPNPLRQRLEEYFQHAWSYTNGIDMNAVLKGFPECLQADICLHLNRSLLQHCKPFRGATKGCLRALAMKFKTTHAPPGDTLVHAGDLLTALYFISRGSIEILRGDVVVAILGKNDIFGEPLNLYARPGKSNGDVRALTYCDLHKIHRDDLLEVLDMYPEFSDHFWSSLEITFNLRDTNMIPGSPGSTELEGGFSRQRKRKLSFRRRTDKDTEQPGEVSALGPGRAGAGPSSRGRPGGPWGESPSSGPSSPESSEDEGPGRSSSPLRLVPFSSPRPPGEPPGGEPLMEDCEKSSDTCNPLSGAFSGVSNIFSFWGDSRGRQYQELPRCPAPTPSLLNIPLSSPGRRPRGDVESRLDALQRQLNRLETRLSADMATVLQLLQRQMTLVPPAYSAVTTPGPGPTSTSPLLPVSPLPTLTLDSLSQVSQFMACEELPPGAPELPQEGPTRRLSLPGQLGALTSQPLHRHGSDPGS

SMILES | hERG current change (%, negative = inhibition) at 10uM
Cc1ccc(NC(=O)c2ccc3c(c2)NC(=O)CS3)nc1 | 6.05%
COc1cc(OC)cc(OC(=O)C2CCN(C(=O)c3ccc(F)cc3)CC2)c1 | -7.47%
Cc1cccc(NC(=O)CS(=O)CC(=O)Nc2cnc3ccccc3c2)c1C (stereo not shown) | 2.45%
O=C(OCC(=O)N1CCN(c2ccccc2)CC1)c1ccc2ncsc2c1 | -21.5%
CCO[C@H]1OC(C(N)=O)=C[C@@H](c2coc3ccccc3c2=O)[C@@H]1CCCO | 0.643%
CCOC(=O)N1CCC(Nc2c(OCC)c(=O)c2=O)CC1 | 3.96%
O=C(Nc1scc(-c2cccs2)c1C(=O)O)c1cccs1 | 15%
O=C1/C(=C/c2ccc(Cl)cc2)SC(=S)N1CCC(=O)N1CCCCC1CCO (stereo not shown) | 4.72%
COc1ccc(C)cc1NC(=O)c1cc(S(=O)(=O)N2CCCC2)cn1C | -14.9%
Cc1ccc(Nc2nnc(SCC(=O)NC(Cc3c[nH]c4ccccc34)C(=O)O)s2)cc1 (stereo not shown) | 31.9%
Cc1cccc(Nc2nc(N)nc(CN3CCN(Cc4ccc5c(c4)OCO5)CC3)n2)c1 | -75.2%
O=C(CCCC1=NS(=O)(=O)c2ccccc2N1)NCCc1ccc(Cl)cc1 | 11.6%
Cc1ccccc1/C(N)=N/O | 6.47%
C/C(Cn1nnc2ccccc21)=N\NC(=O)c1cccc(Br)c1 | -27.2%
CC1=CCC2C(=O)N(c3ccc(N4CCOCC4)cc3)C(=O)C2C1 (stereo not shown) | 1.26%
COc1ccc([N+](=O)[O-])cc1N(CC(=O)NCCCOC(C)C)S(C)(=O)=O | 13.3%
CCCC/C=C1\CCc2c([nH]c3ccccc23)C1=O | 10.1%
COc1cc(C2Nc3ccc4ccccc4c3C3=C2C(=O)CC(C)(C)C3)ccc1OC(C)C(=O)O (stereo not shown) | 14.1%
C=CCNC(=O)c1ccc(C)c(Br)c1 | -7.74%
CC1=NN(c2ccccc2)C(=O)/C1=C/c1c(O)n(-c2ccc(F)c(Cl)c2)[nH]c1=O | 31.4%
O=C(c1cc2cc(Cl)ccc2[nH]1)N1CCN(C(=O)c2ccco2)CC1 | -49.2%
CCCn1nc(NC(=O)C2CCCO2)c2cc3cccc(C)c3nc21 (stereo not shown) | -0.731%

SMILES | hERG current change (%, negative = inhibition) at 10uM
O=C1NC(=O)N(c2ccc3c(c2)OCO3)C(=O)/C1=C\c1ccc(N2CCCCC2)o1 | 0.674%
O=C(Oc1ccc(C(=S)N2CCOCC2)cc1)c1ccccc1 | 67.9%
COc1ccccc1CCN=C(N)NS(=O)(=O)c1ccc(C)c(C)c1 | 9.37%
O=[N+]([O-])c1cc(C(F)(F)F)ccc1N1CCN(S(=O)(=O)c2ccc3ccccc3c2)CC1 | 9.11%
CC1CCCN(CCCNC(=O)C2CCCN(c3ncnc4c3nc3n4CCCCC3)C2)C1 (stereo not shown) | -4.72%
COc1ccc(NS(=O)(=O)c2cc(NC(=O)C3CCCO3)ccc2N2CCCCC2)cc1 (stereo not shown) | 7.98%
O=S(=O)(Nc1ccccn1)c1ccc(Cl)cc1 | -0.154%
Clc1ccccc1-c1nn2c(COc3ccccc3)nnc2s1 | -20.6%
S=c1[nH]nc(-c2cc(-c3ccccc3)n[nH]2)n1/N=C/C=C/c1ccccc1 | 20.7%
COc1ccc(N2CCN(C(c3cc(OC)ccc3OC)c3nnnn3CC3CCCO3)CC2)cc1.Cl (stereo not shown) | -9.64%
C/C(=N\NC(=O)c1cc(Br)ccc1O)c1cccc(NC(=O)c2ccccc2F)c1 | 24.6%
COc1cc(C)c(CN2CCN(C(C)C(=O)NC(C)c3ccccc3)CC2)cc1OC (stereo not shown) | -18.3%
Cc1cc(C(=O)Nc2ccncc2)c2ccccc2n1 | 23.2%
O=C(Nc1ccc(N2C(=O)C3C4C=CC(C4)C3C2=O)cc1)Nc1cccnc1 (stereo not shown) | 4.61%
CCc1cccc(CC)c1NC(=O)CN1C2CCCC1CC(NC(=O)Nc1cccc(OC)c1)C2 (stereo not shown) | -7.7%
Cn1c(SCCOc2cccc(Cl)c2)nnc1-c1ccncc1 | -45.6%
COc1ccc(C(=O)OCc2ccccc2F)cc1S(=O)(=O)N1CCCC1 | -8.37%
CC(C)(C)OC(=O)NCc1ccc(CNC(=O)c2nc[nH]c2C(=O)N2CCc3ccccc3C2)cc1 | -19.5%
COc1ccccc1NC(=O)CNC(=O)c1ccccc1 | 3.46%
CCOc1cnn(-c2cc(Oc3ccc(C)cc3)ncn2)c(=O)c1Cl | -12.4%
O=C(CN1CCC(n2nnc3cc(C(F)(F)F)ccc32)CC1)Nc1ccc2c(c1)OCCO2 | -36.5%
